According to patent publication US12569503B2, “Methods and compositions for substituted axially-chiral cannabinol analogs” (University of Florida Research Foundation, Inc., priority 2019, dated 2026):

Key:
[1] = test system: C57bl/6j mice with chronic constriction injury of the sciatic nerve (CCI); experiment: Reversal of CCI-induced mechanical allodynia (von Frey assay)
[2] = test system: C57bl/6j mice; experiment: Reduction of body temperature (hypothermia); conditions: Table 1; decreasing body temperature, separate cohort of C57bl/6j mice

How did the “Allodynia ED50 ((95% CL)” value ([1]; Table 1, reversing mechanical allodynia, CCI mice, 7 days post-surgery) turn out when 10-methyl-CBN [ax-CBN] was run?
The value was 170.0 mg/kg.

What about the “Body Temp. ED50 ((95% CL)” value [2] of the same compound?
Its value is 318.4 mg/kg.

How did the ED50 ([1]; Mus musculus, 168 h, read-out: Allodynia ED50 ((95% CL) mg/kg)) turn out when `CCCCCc1cc(O)c2c(c1)OC(C)(C)[C@@H]1CCC(C)=C[C@@H]21` [THC, (−)-trans-Δ^9-tetrahydrocannabinol] was run?
Its ED50 is 29.9 mg/kg.
